Some of these densities may be calculated back from excess volumes.
Assay: xn = mol fraction of the nth substance listed
Details: 100 kPa

CCCC[n+]1ccn(C)c1.O=[N+]([O-])[O-] + O
mass density [kg/m3]
Details	292 K	302 K	312 K	322 K	332 K	342 K
x2 = 0	1157.3	1150.8	1144.5	1138.2	1132	1126
x2 = 0.1305	1154.7	1148.1	1141.7	–	1129.2	1123.1
x2 = 0.1946	–	–	1139.9	–	1127.4	–
x2 = 0.2775	1150	1143.2	1136.9	1130.5	–	1118.1

C[n+]1ccn(CCCO)c1.O=[N+]([O-])[O-] + O
mass density [kg/m3]
Details	292 K	302 K	312 K	322 K	332 K	342 K
x2 = 0	1273.4	–	1260.4	1254.4	1248.6	1242.7
x2 = 0.1008	1270.3	1263.7	1257.2	1251.1	1245	–
x2 = 0.1462	1268.3	1261.6	1255.3	1249	1242.8	1236.9
x2 = 0.2121	1264.8	–	1251.6	1245.5	1239.4	–
x2 = 0.2931	–	1253.3	–	1240.8	1234.8	1228.7

From a compilation of properties of binary mixtures (doi:10.1021/jp802540j)
